{"source": "paper PMC12136788", "binders": {"B1": {"name": "chr17:48061271:48061372:+|3pUTR|ENSG00000082641|msi1|FALSE|unique (ssRNA)", "RNA": "GGGAGUUCUACAGUCCGACGAUCAGUGAAAUGGGGGUGGGGGGAAGCACUGAUUCCCAGUUAGGGGGUGCCUAACUGAGCAGUAGGGAUAGAAGGUGUGAACCUGGGAGUGCUUUUAUAAAUUAUUUUCCUUGUAGAUUUUAUCAACAGAGGAUUGAGCAUCA"}, "B2": {"name": "chr1:205810550:205810651:-|5pUTR|ENSG00000133065|unk|total|mutant (ssRNA)", "RNA": "GGGAGUUCUACAGUCCGACGAUCUUGCGGCUUCAGUGCUUGAUGGGGCUGCCUGUUGGUGGAUCAGUUUUUGCAGUGCCUGGCCGGAGUGGAGAGCCGUGGGAAGAGGUCCUGCGGCGCCCAAGCCUGGGUUCACCCCAAGACCAACAGAGGAUUGAGCAUCA"}, "B3": {"name": "chr8:58579689:58579790:+|CDS|ENSG00000137575|msi1|FALSE|bound_elsewhere (ssRNA)", "RNA": "GGGAGUUCUACAGUCCGACGAUCAGCACUGGACAUGUUGGUUUUAUCUUUAAAAAUGGAAAAAUAACAUCCAUAGUGAAAGAUAGCUCUGCAGCCAGAAAUGGUCUUCUCACGGAACAUAACAUCUGUGAAAUCAAUGGACAGCAACAGAGGAUUGAGCAUCA"}, "B4": {"name": "chr1:74475294:74475810:-|CDS|ENSG00000162621|control|control|control (ssRNA)", "RNA": "GGGAGUUCUACAGUCCGACGAUCUUUAGAAACCUGAAAAAGAAAGACCGUGGGGUAGGCAGCACUUUAUUUUGCCAGGAUGGUAGAUUGCUGCAUUCGGAAUGUUCAGAGCCUCCUGGAAAUAUGAGAGCUUUUAAUGAAGCACAACAGAGGAUUGAGCAUCA"}, "B5": {"name": "chr7:130192614:130192715:-|CDS|ENSG00000146842|msi1|total|mutant (ssRNA)", "RNA": "GGGAGUUCUACAGUCCGACGAUCUACAUGACCGACCUACGAACUUUGGAUACUUUUCUCAGAAGUGAAGAGGAGAAACAGCACCGGGUUAAGCUGGGUACAUAUAUAUUUCUGUAUAUCUACUAUACAUAUUUUUGGUGUCAACAACAGAGGAUUGAGCAUCA"}, "B6": {"name": "chr3:186789481:186789582:+|3pUTR|ENSG00000156976|msi1_unk|FALSE|overlapping (ssRNA)", "RNA": "GGGAGUUCUACAGUCCGACGAUCUUGGGGUGGGUAUAAAAGAUGGGGUCUGUAAAAUCUUUCUUUCUUAGAAAUUUAUUUCCUAGUUCUGUAGAAAUGGUUGUAUUAGAUGUUCUCUAUCAUUUAAUAAUAUACUUGUGGACUCAACAGAGGAUUGAGCAUCA"}}, "note": "The other results are listed elsewhere or left out.", "data": [{"molecular_target": "T1, UNK ZnF1-6 (called full-length) (human, UniProt Q9C0B0 30-357)", "T1 sequence": "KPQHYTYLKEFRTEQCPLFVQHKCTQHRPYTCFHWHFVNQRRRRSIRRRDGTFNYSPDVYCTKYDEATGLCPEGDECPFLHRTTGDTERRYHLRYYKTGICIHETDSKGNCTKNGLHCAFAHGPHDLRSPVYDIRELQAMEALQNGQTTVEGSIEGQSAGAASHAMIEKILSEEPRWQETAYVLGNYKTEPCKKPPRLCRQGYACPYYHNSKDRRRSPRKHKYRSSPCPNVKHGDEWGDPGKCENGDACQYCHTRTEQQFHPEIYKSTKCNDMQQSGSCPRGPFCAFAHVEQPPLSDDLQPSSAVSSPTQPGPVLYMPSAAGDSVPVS", "assay": "nsRBNS (natural sequence RNA bind-n-seq); RBNS binding buffer (assumed for nsRBNS): 25 mM Tris pH 7.5, 150 mM KCl, 3 mM MgCl2, 0.01% Triton X-100, 500 ug/ml BSA, 20 U/ml SUPERase-In, 4 C; UNK is unkempt and MSI1 is Musashi-1; names of the RNAs are library labels; protein concentration not given here; high values mean tight binding", "units": {"binding signal": "enrichment R"}, "values": [{"binder": "B1", "binding signal": 6.4}, {"binder": "B2", "binding signal": 0.798}, {"binder": "B3", "binding signal": 0.376}, {"binder": "B4", "binding signal": 0.68}, {"binder": "B5", "binding signal": 0.543}, {"binder": "B6", "binding signal": 5.04}]}]}
